# Measured values: the supplement of paper PMC3334620
# Over roughly 33,000 sequences, “E-score (-0.5 to 0.5)” has its median near -0.035; the highest 2% begin near 0.35. This is one part of the list.
# Biological target: T1, Pdr3 (UniProt P33200)
# T1 sequence: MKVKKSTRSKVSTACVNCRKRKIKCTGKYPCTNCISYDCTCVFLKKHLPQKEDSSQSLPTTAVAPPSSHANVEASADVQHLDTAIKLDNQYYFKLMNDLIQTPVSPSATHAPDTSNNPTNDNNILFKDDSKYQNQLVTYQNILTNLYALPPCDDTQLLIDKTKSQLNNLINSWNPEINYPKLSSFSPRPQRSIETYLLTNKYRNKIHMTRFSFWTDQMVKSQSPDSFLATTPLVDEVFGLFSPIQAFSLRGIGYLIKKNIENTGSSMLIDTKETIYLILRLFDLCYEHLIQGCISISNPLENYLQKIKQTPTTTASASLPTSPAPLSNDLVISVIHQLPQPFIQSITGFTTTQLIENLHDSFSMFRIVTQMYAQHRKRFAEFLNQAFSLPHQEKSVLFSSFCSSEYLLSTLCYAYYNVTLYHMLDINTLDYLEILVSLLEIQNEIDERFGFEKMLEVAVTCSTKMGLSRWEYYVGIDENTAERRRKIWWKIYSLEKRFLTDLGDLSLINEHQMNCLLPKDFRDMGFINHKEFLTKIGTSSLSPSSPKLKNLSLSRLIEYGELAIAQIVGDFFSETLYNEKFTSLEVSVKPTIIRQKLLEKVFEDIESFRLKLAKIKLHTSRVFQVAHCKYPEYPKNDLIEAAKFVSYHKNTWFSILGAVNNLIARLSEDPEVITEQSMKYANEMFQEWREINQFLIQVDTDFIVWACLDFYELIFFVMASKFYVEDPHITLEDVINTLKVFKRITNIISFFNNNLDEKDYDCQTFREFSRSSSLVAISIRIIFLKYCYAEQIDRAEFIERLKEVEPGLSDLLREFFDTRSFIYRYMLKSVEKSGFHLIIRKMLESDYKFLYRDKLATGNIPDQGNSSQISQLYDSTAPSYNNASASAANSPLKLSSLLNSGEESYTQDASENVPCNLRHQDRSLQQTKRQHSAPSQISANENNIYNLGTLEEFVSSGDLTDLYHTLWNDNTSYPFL
# Assay: PBM E-score (8-mer binding enrichment) (E-score (-0.5 to 0.5)); higher = stronger / more preferred TF binding; most listed sequences are background and not binding sites
# Conditions: protein concentration: 200 nM; construct: GST-full length
# How it was run: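 Full-length yeast transcription factors or their DNA-binding domains, GST-tagged and expressed with PURExpress, were applied at about 100-200 nM to universal all-10-mer Agilent arrays. These arrays had been made double-stranded by primer extension on fresh or once-stripped slides. Detection used fluorescent anti-GST, normalisation used masliner, and E-scores for ungapped eight-base words pooled with reverse complements came from the Universal PBM Analysis Suite.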
row,Sequence,PBM E-score
1,CGAGTGGA,0.0186
2,AAAAGGTC,-0.215
3,GCACCGGA,0.377
4,CCAATACC,0.0817
5,CGTCCGTA,0.176
6,ACCTAGAT,-0.0892
7,CTTGTCCA,-0.0525
8,CAACAATC,-0.0101
9,ATAAGCAG,-0.127
10,ACCCGGGC,0.424
11,ACTATACC,0.0352
12,CGTACGGA,0.281
13,CCTAGAGG,-0.243
14,AAGTTACT,0.00994
15,GTTGACCA,-0.0689
16,TGTTCTAA,-0.0541
17,AACGGGAC,0.217
18,CACCCCGA,0.17
19,GCACGTCC,0.115
20,CGCGCGCA,0.347
21,ATCCTCGC,0.0538
22,GGTGTCTA,-0.197
23,AGGGTAGC,-0.151
24,GGGTGAAA,0.0587
25,AGATTAAG,-0.0641

row,Sequence,PBM E-score
1,AGTCGACG,0.213
2,ATTAACTC,0.0635
3,TGGCGCAA,-0.0179
4,GCCGTGAA,0.228
5,AGAGCACC,-0.104
6,TCAATACA,-0.0685
7,AATGAAAG,-0.103
8,AAGAGTCA,-0.245
9,AGCGAGTG,0.0622
10,GTGTGCTA,0.00872
11,ATAACACC,0.11
12,CATGCGTC,-0.0338
13,ATATCTCG,0.059
14,AGCCGAGC,0.267
15,GAGCGAAC,-0.176
16,CGGTATGA,0.117
17,GAGCGTCA,-0.0649
18,AGCGGACA,0.154
19,ACATAAAC,-0.00238
20,AATAAACC,0.167
21,ATTAACGC,-0.0216
22,TCGCCAGA,-0.206
23,AGACAGCA,-0.0918
24,CATACTCG,0.139
25,ACCGAAAG,-0.146

row,Sequence,PBM E-score
1,AAGTGTTA,-0.0139
2,TACTACAA,0.119
3,ACGTGATA,-0.0938
4,AAAAAAGA,-0.115
5,CTACTCGA,-0.0547
6,TCACCGAA,0.0178
7,AATTAGCA,0.103
8,CTAGTACC,-0.184
9,GTAGGATA,-0.0665
10,ACGAGAAG,-0.278
11,AATCCACG,-0.0307
12,TAAGCATA,-0.125
13,ATGAAGTC,-0.212
14,CAGTCCAA,-0.141
15,ACACGAGA,-0.0914
16,ATGGGCCA,0.00407
17,AATATAAC,0.00257
18,AAATGGTT,-0.099
19,CGCCCGAC,0.223
20,TACGCCCA,-0.147
21,CGGTATAG,0.095
22,CATCCTTC,-0.104
23,CTTAATGC,-0.108
24,AAACAATT,0.115
25,AAACGGTG,-0.255

row,Sequence,PBM E-score
1,CTAATTAA,-0.0717
2,AACAATAT,0.156
3,AGGGGAGC,-0.0507
4,CACCGGAG,0.253
5,ACAAACCC,0.0124
6,GGACGGCC,0.188
7,AAGTCTAA,-0.234
8,CAATTTAG,-0.0844
9,CGGGTCGC,0.184
10,TAGGTAAA,-0.253
11,TGTAGAAA,-0.142
12,TCTCATAA,-0.236
13,ATGCTCAC,-0.048
14,CCTTCGCC,-0.0542
15,ATTCGCGG,0.253
16,ACATCTCC,0.235
17,AACCTGGA,-0.0353
18,CCCCTCAG,-0.174
19,CATACAAC,-0.128
20,CCGGATTC,0.337
21,CTCCTACA,-0.157
22,AACCACTT,-0.0646
23,AGCTTCCC,-0.0703
24,TGCTACAA,-0.0149
25,GAGAAAGC,0.012

row,Sequence,PBM E-score
1,CCAGTTGA,-0.106
2,GATAGATC,5e-05
3,ACTCCTGA,-0.156
4,AACCACGT,-0.24
5,TACCTGCA,-0.045
6,CACTCGGA,0.328
7,ACCCCGCT,0.211
8,GGATGCTA,0.0348
9,ATGTCCCA,-0.149
10,ATTCCAAG,-0.0466
11,AATCATAA,-0.0865
12,ATGTGGTC,-0.0765
13,TAAGTGCA,-0.146
14,CCGCTACC,0.231
15,AGACACTA,-0.0235
16,ACCCAAAT,-0.11
17,GATAGGGA,-0.147
18,GAAATCAC,0.186
19,AAAATTCT,-0.0203
20,CTGTTCCC,0.0618
21,CGGGGATC,0.28
22,AGTCGCCG,0.168
23,AAGTTGTC,0.035
24,CAGCTCGA,-0.0456
25,AGAAACGG,0.19

row,Sequence,PBM E-score
1,GCTGATTA,0.0645
2,GACGCGTA,-0.0308
3,GGTAACAA,0.12
4,CATACTAC,0.072
5,AGTACACG,-0.00706
6,TCCCACGA,0.0987
7,CCGGACTA,0.333
8,GCTAGGTA,-0.162
9,AGGGTAAG,-0.118
10,TAAACGCA,-0.104
11,AGATGAAT,-0.18
12,CACACGAC,-0.104
13,AAGTTGTG,-0.00949
14,AACAAATA,0.158
15,ATTACACG,0.11
16,AAAAACGT,-0.168
17,AGGCTTAC,-0.123
18,CGGCATAC,0.168
19,AGGCTGAT,-0.18
20,CCAAAAAA,0.0515
21,GCTCCCCC,-0.215
22,GGAGCGAC,0.0529
23,CGTTGGGC,-0.00619
24,GAACTCTA,-0.107
25,GAACGTAC,-0.122

row,Sequence,PBM E-score
1,ATAACTCA,0.00779
2,CTCTTTAA,-0.0879
3,ACTCTTGA,-0.186
4,GGGCATAA,-0.079
5,TCAATTAA,-0.0675
6,CATACGTA,-0.00389
7,GTGATCTA,0.0739
8,ACCACATA,-0.0748
9,ACGCATCG,-0.13
10,GCAGTTAA,0.0152
11,TCCTACCA,-0.135
12,ATTCCTTG,-0.0356
13,GAAGGAAA,-0.00233
14,TGAGGGCA,-0.064
15,GGGTCAAC,0.203
16,ACATCTAC,0.0404
17,GGGTTCGA,-0.0225
18,AGCCGCAC,0.0341
19,AACGTCAG,-0.241
20,CATCGTTC,-0.0901
21,AACGCTGT,-0.137
22,AATATCCC,0.215
